Data published in PMC3431386, “Swi1 Associates with Chromatin through the DDT Domain and Recruits Swi3 to Preserve Genomic Integrity” (PLoS ONE, 2012).
Where a chain is given by its changes, count along the chain named. Results are given in words; binding and its absence hold for the method and conditions named. For part of these data: In cells and extracts the contact can be indirect. Some entries that bind do so weakly or less than the wild type. Where a sequence is shown, tags or fusion partners need not be part of it. Values belong to the binder of their own block, whether it stands above or below them.

Columns and labels:
[1] = target: T1, Swi1-h2 (swi1 F349A, L352A, L356A-5FLAG) (S. pombe) (UniProt Q9UUM2); experiment: co-IP; Swi1-FLAG immunoprecipitated from S. pombe protein extracts, blots probed with anti-FLAG M2 and anti-Myc 9E10
T1 sequence: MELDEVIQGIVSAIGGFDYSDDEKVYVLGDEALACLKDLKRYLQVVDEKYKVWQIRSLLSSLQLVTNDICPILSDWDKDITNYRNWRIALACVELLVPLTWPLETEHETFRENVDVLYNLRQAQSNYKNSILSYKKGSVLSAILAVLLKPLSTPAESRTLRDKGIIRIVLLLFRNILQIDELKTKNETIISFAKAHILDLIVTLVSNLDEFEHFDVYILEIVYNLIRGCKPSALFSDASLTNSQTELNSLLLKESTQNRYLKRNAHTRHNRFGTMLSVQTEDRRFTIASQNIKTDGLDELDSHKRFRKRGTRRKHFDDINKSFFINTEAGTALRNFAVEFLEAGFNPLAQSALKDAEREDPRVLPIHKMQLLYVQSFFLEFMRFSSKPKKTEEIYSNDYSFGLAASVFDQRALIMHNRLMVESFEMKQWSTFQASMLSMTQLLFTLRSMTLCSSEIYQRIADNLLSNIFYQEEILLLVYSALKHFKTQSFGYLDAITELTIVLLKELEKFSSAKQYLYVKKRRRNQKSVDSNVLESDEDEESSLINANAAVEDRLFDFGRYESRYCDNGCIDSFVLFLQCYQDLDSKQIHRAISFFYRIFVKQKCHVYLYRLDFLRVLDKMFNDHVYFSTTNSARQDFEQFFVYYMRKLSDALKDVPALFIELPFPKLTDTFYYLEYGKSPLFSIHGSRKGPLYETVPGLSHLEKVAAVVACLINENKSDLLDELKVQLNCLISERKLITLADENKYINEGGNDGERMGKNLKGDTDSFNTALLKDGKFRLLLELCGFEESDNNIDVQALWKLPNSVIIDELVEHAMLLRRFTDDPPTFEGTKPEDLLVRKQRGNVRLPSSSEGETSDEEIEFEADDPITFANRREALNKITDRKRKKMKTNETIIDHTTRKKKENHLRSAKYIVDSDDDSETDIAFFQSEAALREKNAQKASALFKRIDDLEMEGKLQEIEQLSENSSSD

[2] = target: T2, Swi1ΔDDT (swi1 ΔDDT-5FLAG, deletion of amino acids 323–378) (S. pombe) (UniProt Q9UUM2); experiment: as above
T2 sequence: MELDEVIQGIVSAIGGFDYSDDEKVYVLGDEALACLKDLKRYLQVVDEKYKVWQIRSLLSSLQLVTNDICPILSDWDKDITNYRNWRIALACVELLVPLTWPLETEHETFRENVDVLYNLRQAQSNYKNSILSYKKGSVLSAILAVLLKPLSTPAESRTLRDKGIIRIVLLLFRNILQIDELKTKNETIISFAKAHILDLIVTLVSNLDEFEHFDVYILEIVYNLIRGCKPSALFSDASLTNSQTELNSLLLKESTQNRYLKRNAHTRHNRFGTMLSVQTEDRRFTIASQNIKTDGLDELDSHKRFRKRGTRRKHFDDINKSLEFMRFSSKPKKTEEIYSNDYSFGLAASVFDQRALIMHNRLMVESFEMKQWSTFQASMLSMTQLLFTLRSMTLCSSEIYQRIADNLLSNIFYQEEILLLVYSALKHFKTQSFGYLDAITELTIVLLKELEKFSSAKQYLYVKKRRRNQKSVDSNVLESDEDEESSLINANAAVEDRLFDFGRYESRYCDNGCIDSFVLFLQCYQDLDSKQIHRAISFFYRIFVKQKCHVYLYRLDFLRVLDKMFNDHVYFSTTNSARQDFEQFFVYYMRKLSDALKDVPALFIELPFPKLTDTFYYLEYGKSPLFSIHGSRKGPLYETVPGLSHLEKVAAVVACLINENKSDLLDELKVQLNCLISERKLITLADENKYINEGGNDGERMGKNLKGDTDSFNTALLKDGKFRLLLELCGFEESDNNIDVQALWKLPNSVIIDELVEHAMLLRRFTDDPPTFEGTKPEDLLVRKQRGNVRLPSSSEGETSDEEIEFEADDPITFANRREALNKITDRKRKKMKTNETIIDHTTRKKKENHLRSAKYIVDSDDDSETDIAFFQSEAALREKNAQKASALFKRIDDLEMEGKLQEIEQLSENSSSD

[3] = target: T3, Swi1-h1 (swi1 L333A, F336A, F340A-5FLAG) (S. pombe) (UniProt Q9UUM2); experiment: as above
T3 sequence: T1 sequence with L333A, F336A, F340A, A349F, A352L, A356L

[4] = target: T4, Swi1-5FLAG (wild type, expressed from the swi1 promoter) (S. pombe) (UniProt Q9UUM2); experiment: as above
T4 sequence: T1 sequence with A349F, A352L, A356L

[5] = target: T5, Swi1 (500–800)-5FLAG (S. pombe) (UniProt Q9UUM2); experiment: pull-down; anti-FLAG M2 agarose beads bound to Swi1-FLAG (purified from swi3Δ cells) mixed with His6-Swi3 in lysis buffer A (50 mM Tris-HCl pH 8.0, 150 mM NaCl, 0.1% NP-40, 10% glycerol), 1 hour at 4°C, washed three times, Western blotting with anti-FLAG or His6 antibody; both purified
T5 sequence: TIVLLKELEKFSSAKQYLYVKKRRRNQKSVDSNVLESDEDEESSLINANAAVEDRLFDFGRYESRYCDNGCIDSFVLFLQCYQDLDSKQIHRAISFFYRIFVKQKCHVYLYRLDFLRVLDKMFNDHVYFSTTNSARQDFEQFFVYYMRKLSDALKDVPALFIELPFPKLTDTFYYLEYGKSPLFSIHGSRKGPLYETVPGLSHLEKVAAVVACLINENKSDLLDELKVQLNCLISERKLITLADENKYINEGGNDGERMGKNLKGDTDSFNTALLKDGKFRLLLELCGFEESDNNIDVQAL

[6] = target: T6, Swi1 (1–300)-5FLAG (S. pombe) (UniProt Q9UUM2); experiment: as above
T6 sequence: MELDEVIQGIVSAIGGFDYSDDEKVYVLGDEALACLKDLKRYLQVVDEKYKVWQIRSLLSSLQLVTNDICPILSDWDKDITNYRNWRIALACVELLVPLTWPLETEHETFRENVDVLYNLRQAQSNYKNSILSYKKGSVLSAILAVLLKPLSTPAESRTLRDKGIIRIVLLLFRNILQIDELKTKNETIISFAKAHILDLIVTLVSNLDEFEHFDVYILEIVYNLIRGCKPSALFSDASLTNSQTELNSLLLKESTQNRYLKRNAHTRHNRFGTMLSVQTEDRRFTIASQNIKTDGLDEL

- binding [1]: binds
- binding [2]: no binding
- binding [3]: no binding
- binding [4]: binds
B1: Swi3-13Myc (protein, UniProt O14350 1-181)
chain: MSTAASDSGVEKLVEENKREEVKKNEEEKEFDLGLEENPDSVKKPRKRLAKFDEERLISENGIPKLRKMMRKVKLKGKGHEAKDLKQLLGMYHIWTHELYPRATFDDSISYLKTLGKHRSVKVRRRGWINEIAVENGSDSNASLFTGPSSNSLVNLTSGDPYVQDTADDAFVAQDNDTQLE

- binding [5]: no binding
- binding [6]: no binding
B2: hexahistidine-tagged Swi3 (His6-Swi3) (natural protein, S. pombe, UniProt O14350 1-181, looked up)
chain: B1 chain
notes: Swi3, S. pombe; swi3 open reading frame in the NdeI/XhoI site of pET28a; also called recombinant Swi3; pET28a-Swi3; source: E. coli BL21(DE3), purified (Ni-NTA)
